“And” between values parts separate entries of the source, which are not always exact repeats. Equal values may be shown once. Inconclusive results, whose numbers are uncertain, are shown with a selection of clear calls. Where the call is inconclusive, the potency comes from a doubtful curve fit. Some structures have more than one record in an assay (separate samples or runs), and their calls can disagree. The source made the active and inactive calls. The call rests on the fitted dose curve; in most records, active means well fitted cell-killing curve with a large enough effect in the repeat runs; inconclusive means weak or mixed curves, or effect the other way; inactive means no such curve, though single readings can be large or run the other way.
experiment: qHTS assay to identify small molecule antagonists of the vitamin D receptor (VDR) signaling pathway - cell viability counter screen (AID 743225); settings: VDR-bla HEK293T viability, CellTiter-Glo luminescence, 16 h; viability change, negative = cytotoxic: at 61 µM (top of the series) unless noted; further: nearly all actives have a fitted effect of over 50% in size
From the text: U.S. Tox21 Program National Center for Advancing Translational Sciences [NCATS] NIH Chemical Genomics Center [NCGC] U.S. Environmental Protection Agency [EPA] National Institutes of Environmental Health Sciences [NIEHS] National Toxicology Program [NTP] U.S. Food and Drug Administration [FDA] Tox21 Assay Overview: The vitamin D receptor (VDR), a member of nuclear hormone receptor superfamily, plays a critical role in calcium homeostasis and bone metabolism. It is also involved in cell differentiation and growth, and thrombogenicity. To identify the compounds that inhibit VDR signaling, the VDR-UAS-bla HEK 293T cell line (Invitrogen, Carlsbad, CA, USA) containing a beta-lactamase reporter gene under the control of an upstream activator sequence (UAS) was used to screen the Tox21 10K compound library. The cytotoxicity of the Tox21 compound library against the VDR-bla cell line was tested in parallel by measuring the cell viability using CellTiter-Glo assay (Promega, Madison, WI) in the same wells.
Tox21 Assay Protocol Summary: VDR-bla cells were dispensed at 2,000 cells/5 uL of assay medium per well into black wall/clear-bottom 1536-well plates using a Multidrop Combi (Thermo Fisher Scientific, Waltham, MA) dispenser. After the assay plates were incubated at a 37C and 5% CO2 for 4 h, 23 nL of compounds dissolved in DMSO, positive controls or DMSO only was transferred to the assay plate by a Pintool station (Kalypsys, San Diego, CA), followed by addition of 1 uL of 1-alpha, 25-Dihydroxy Vitamin D3 (3 nM, final concentration in the wells) using a Bioraptr Flying Reagent Dispenser (FRD) workstation (Beckman Coulter, Indianapolis, IN). The plates were incubated at 37C and 5% CO2 for 16 h, and then 1 uL of LiveBLAzerTM B/G FRET substrate was added using a Bioraptr FRD. The plates were incubated at room temperature for 2 h and fluorescence intensity was measured by an Envision plate reader (PerkinElmer, Shelton, CT). For cell viability readout that measures cytotoxicity, 3 ul/well of CellTiter-Glo reagent was added into the assay plates using a Bioraptr FRD. After 30 min incubation at room temperature, the luminescence intensity in the plates was measured using a ViewLux plate reader (PerkinElmer).
On the % scale 0 is the no-effect control and ±100 the full control effect; potency means the concentration at half of the fitted maximal effect; tags describe the fitted curve by direction and shape.

| SMILES | Potency | viability change, negative = cytotoxic |
| --- | --- | --- |
| [Cl][Bi]([Cl])([c]1ccccc1)([c]1ccccc1)[c]1ccccc1 | active: 2.44 µM | – |
| CN1CCC[C@@H]1CCO[C@](C)(c1ccccc1)c1ccc(Cl)cc1 | inconclusive: 26.8 µM [cytotoxic, single point] | – |
| CCCCCC(=O)O[C@]1(C(C)=O)CC[C@H]2[C@@H]3CCC4=CC(=O)CC[C@]4(C)[C@H]3CC[C@@]21C | active: 43.4 µM and active: 23.9 µM | – |
| C#CC1(O)CC[C@H]2[C@@H]3CCC4=CCCC[C@@H]4[C@H]3CC[C@@]21C (stereo not given in full) | inconclusive: 61.6 µM [cytotoxic, single point] and active: 21.3 µM | – |
| CC(C)(c1cc(Br)c(OCCO)c(Br)c1)c1cc(Br)c(OCCO)c(Br)c1 | inconclusive: 38 µM [cytotoxic, partial curve, poor fit] | – |
| CCOC(=O)C1=C(C)NC(C)=C(C(=O)OCC)C1c1ccccc1/C=C/C(=O)OC(C)(C)C | inconclusive: 26.8 µM [cytotoxic, single point] | – |
| CN1CCN(CCCN2c3ccccc3Sc3ccc(C(F)(F)F)cc32)CC1 | active: 23.9 µM | – |
| Cc1cc(O)c(C(C)(C)C)cc1C(C)(C)C | active: 21.9 µM | – |
| CN[C@H]1CC[C@@H](c2ccc(Cl)c(Cl)c2)c2ccc(S(N)(=O)=O)cc21 | active: 21.9 µM | – |
| CCCCCCCC/C=C/CCCCCCCC1=NCCN1CCO | active: 34.7 µM | – |
| CCc1cc(Cc2cc(CC)c(N)c(CC)c2)cc(CC)c1N | inconclusive: 54.9 µM [cytotoxic] | – |
| CCCN(CCC)c1c([N+](=O)[O-])cc(C(F)(F)F)c(N)c1[N+](=O)[O-] | active: 21.8 µM | – |
| CCCCC(CC)COC(=O)CC(C(=O)OCC(CC)CCCC)S(=O)(=O)O (stereo not given) | active: 21.1 µM and active: 15.5 µM | – |
| CC/C(=C(\c1ccc(O)cc1)c1ccc(OCCN(C)C)cc1)c1ccccc1 | active: 19.5 µM | – |
| CN(C)CCC=C1c2ccccc2CCc2ccccc21 | active: 21.9 µM and active: 49 µM | – |
| CC=O | active: 57.5 µM | – |
| Cc1c(C)c2c(c(C)c1O)CCC(C)(COc1ccc(CC3SC(=O)NC3=O)cc1)O2 (stereo not given) | inconclusive: 61.6 µM [cytotoxic, single point] | – |
| c1ccc2occc2c1 | inconclusive: 4.9 µM [cytotoxic, full curve] | – |
| CN(C)C(=S)SC(=S)N(C)C | inconclusive: 3.79 µM [cytotoxic, full curve] | – |
| CN(C)CCCN1c2ccccc2CCc2ccc(Cl)cc21 | active: 38.9 µM and inconclusive: 23.9 µM [cytotoxic, partial curve] | – |

| SMILES | Potency | viability change, negative = cytotoxic |
| --- | --- | --- |
| O=C1c2c(O)ccc([N+](=O)[O-])c2C(=O)c2c([N+](=O)[O-])ccc(O)c21 | active: 9.68 µM | – |
| CCCCCCCCCCCCCOP(=O)(O)O | – | inconclusive: -0.504% [cytotoxic] |
| CCCN(CCC)C(=O)C(CCC(=O)OCCCN1CCN(CCOC(=O)Cc2c(C)n(C(=O)c3ccc(Cl)cc3)c3ccc(OC)cc23)CC1)NC(=O)c1ccccc1 (stereo not given) | active: 26.8 µM | – |
| C[C@@H](NCCCc1cccc(C(F)(F)F)c1)c1cccc2ccccc12 | active: 23.9 µM | – |
| CCc1cc(Cc2cc(CC)cc(C(C)(C)C)c2O)c(O)c(C(C)(C)C)c1 | active: 4.36 µM | – |
| CCOC(=O)O[C@H](C)OC(=O)c1ccc2c(c1)cc(C(=O)NC1CCN(C(C)C)CC1)n2Cc1cc(-c2ccc(Cl)s2)on1 | inconclusive: 16.2 µM [cytotoxic, full curve, poor fit] | – |
| COc1ccc(CCN2CCC(Nc3nc4ccccc4n3Cc3ccc(F)cc3)CC2)cc1 | active: 6.3 µM and active: 23.9 µM | – |
| CC(C)(c1cc(Br)c(O)c(Br)c1)c1cc(Br)c(O)c(Br)c1 | active: 43.5 µM and inconclusive: 54.8 µM [cytotoxic] and inconclusive: 52 µM [cytotoxic, single point] | – |
| CCCCCCCCn1sc(Cl)c(Cl)c1=O | active: 6.92 µM | – |
| Cc1ccc(S(=O)(=O)Oc2ccc(N=Nc3ccc(-c4ccc(N=Nc5c(O)ccc6cc(S(=O)(=O)O)cc(S(=O)(=O)O)c56)c(C)c4)cc3C)cc2)cc1 | inconclusive: 55.2 µM [cytotoxic, single point] | – |
| Oc1ccc(Cl)cc1Cc1cc(Cl)ccc1O | active: 28 µM and inconclusive: 21.9 µM [cytotoxic, partial curve, poor fit] and active: 6.74 µM | – |
| CC(C)(C)CC(C)(C)c1ccccc1O | active: 22 µM | – |
| O=C1CCCCCCCCCCCCCC1 | – | inactive: 2.22% |
| O=C1Cc2cc(CCN3CCN(c4nsc5ccccc45)CC3)c(Cl)cc2N1 | active: 23.9 µM | – |
| Oc1ccc2cc(SSc3ccc4cc(O)ccc4c3)ccc2c1 | inconclusive: 55 µM [cytotoxic, single point] and inconclusive: 30.9 µM [cytotoxic, partial curve, poor fit] | – |
| CCCOc1sc(C(=O)N2CCC(c3cc(CN)ccc3F)CC2)c(C)c1Br | active: 35.7 µM | – |
| c1ccc(Nc2cccc3ccccc23)cc1 | inconclusive: 62.5 µM [cytotoxic, single point] | – |
| CCCCCCCCCCCCOC(=O)c1cc(O)c(O)c(O)c1 | active: 43.5 µM and active: 24.5 µM | – |
| OC1(c2ccc(Cl)c(C(F)(F)F)c2)CCN(CCCC(c2ccc(F)cc2)c2ccc(F)cc2)CC1 | active: 10.7 µM | – |
| CC(O)C(=O)O (stereo not given) | inactive and inconclusive: 5.59 µM [cytotoxic, single point] | – |

Reference: PubChem BioAssay (Tox21)
